PubChem BioAssay AID624296 (National Center for Advancing Translational Sciences (NCATS), 2012)
Where “and” joins values, the source holds several entries; their conditions need not be identical. Identical values can stand only once. The campaign covered roughly 350,000 compounds. About 9,900 (2.8%) were called active. The inconclusive results got no clear call from the source; some entries with a clear call stand among them for comparison. Calls follow the shape of the dose curve; as a rule, active = well fitted activation curve with a large enough effect; inconclusive = small, poorly fitted or top-dose-only effect; inactive = no such curve, though single readings can be large or run the other way. A potency beside an inconclusive call is a rough fit, not a confirmed value.

Assay: A quantitative high throughput screen for small molecules that induce DNA re-replication in MCF 10a normal breast cells. Also: nearly all actives have a fitted effect of over 50% in size.
Conditions: MCF 10A DNA re-replication, Hoechst nuclear intensity, 48 h; series mostly up to 46.1 µM
Potency is read from the fitted curve at half-maximal effect; tags tell the direction and shape of the fitted curve.

Row | SMILES | Potency
1 | COc1cccc(Nc2nc(-c3cccnc3)cs2)c1 | inconclusive: 6.51 µM [activator, full curve, poor fit]
2 | Cc1ccc(C)c(N2CCN(CCCNC(=O)Cn3c(=O)c4cccn4c4cccnc43)CC2)c1 | inconclusive: 20.6 µM [activator, partial curve, poor fit]
3 | Cc1ccc(Cn2nnc3c(=O)n(CC(=O)OCc4ccccc4)cnc32)cc1 | inactive
4 | O=S(=O)([N-]c1nc2ccccc2nc1-[n+]1ccc(CCCc2ccccc2)cc1)c1cccs1 | inactive
5 | Cc1c(Cl)ccc2c(C(=O)NCCN3CCCCC3)cc(-c3ccccn3)nc12 | inconclusive: 29.1 µM [activator, single point]
6 | CC(=O)Nc1cc2c(cc1NC(=O)c1cnccn1)OCCO2 | inactive
7 | O/N=C/c1ccnc(SCc2ccc(Cl)cc2)n1 | inconclusive: 29.1 µM [activator, partial curve, poor fit]
8 | CN1CCN(c2ccccc2NC(=O)c2cccc(OCc3ccccc3)c2)CC1 | inactive
9 | CCOc1ccc(S(=O)(=O)Nc2ccc(C(=O)NCC(C)(C)N3CCOCC3)cc2)cc1 | inactive
10 | COc1cc2c(cc1NC(=O)CSc1nnc(COc3ccc(Cl)cc3)n1C)oc1ccccc12 | inactive
11 | COc1cc2c(cc1NC(=O)COC(=O)CNS(=O)(=O)c1ccc(C)cc1)oc1ccccc12 | inactive
12 | O=C(Cc1ccccc1)Nc1nc2ccccc2[nH]1 | inconclusive: 6.51 µM [activator, full curve]
13 | O=C1C2C3C=CC(C3)C2C(=O)N1/N=C/c1ccc(-c2ccccc2[N+](=O)[O-])o1 (stereo not given) | inconclusive: 2.31 µM [activator, full curve]
14 | O=S(=O)(NC1c2cccc3cccc(c23)C1N1CCN(CCO)CC1)c1ccccc1 (stereo not given) | active: 23.1 µM
15 | FC(F)(F)c1cccc(Cn2nnnc2-c2cccc(C(F)(F)F)c2)c1 | inconclusive: 14.6 µM [activator, partial curve, poor fit]
16 | CCOn1c(=O)c(-c2ccc(Br)cc2)[n+]([O-])c2ccccc21 | inactive
17 | COc1cccc(Oc2nc(-c3ccncc3)nc3ccccc23)c1 | active: 18.4 µM
18 | CC(C)c1ccc(NC(=O)c2cc(S(=O)(=O)NCC3COc4ccccc4O3)ccc2F)cc1 (stereo not given) | inconclusive: 23.1 µM [activator, single point] and inconclusive: 14.6 µM [activator, partial curve, poor fit]
19 | CCOc1ccccc1N(CC)C(=O)c1nn(C)c2c1CSc1ccccc1-2 | inconclusive: 23.1 µM [activator, single point]
20 | CCOc1ccccc1/C=C/c1onc(C)c1S(=O)(=O)N1CCC(C(=O)N(CC)CC)CC1 | inconclusive: 20.6 µM [activator, single point]
21 | CCCNC(=O)Nc1ccc(F)c(Cl)c1 | inactive
22 | Nc1nnc(-c2cn(-c3ccccc3)nc2-c2ccc(Cl)cc2)o1 | inconclusive: 18.4 µM [activator, partial curve, poor fit]
23 | O=c1cc(-c2ccc(Cl)cc2)[nH]c2ccccc12 | active: 14.6 µM

Row | SMILES | Potency
24 | O=C(CN1CCCCC1)Nc1ccc(Br)cc1[N+](=O)[O-] | inconclusive: 18.4 µM [activator, partial curve, poor fit]
25 | COc1cc(N2C(=O)CSC2=S)cc(OC)c1OC | inconclusive: 29.1 µM [activator, single point]
26 | CCOC(=O)c1c(NC(=O)CC2Nc3ccccc3NC2=O)sc(C)c1C (stereo not given) | inconclusive: 10.3 µM [activator, partial curve, poor fit]
27 | COC(=O)C1=C(C)N(Cc2ccc(C)cc2)C(=O)/C1=C\c1ccc(O)c(OC)c1 | inconclusive: 23.1 µM [activator, single point]
28 | Nn1cnnc1N/N=C/c1ccc(Cl)c([N+](=O)[O-])c1 | inconclusive: 29.1 µM [activator, single point]
29 | COC(=O)C1=C(C)OC(N)=C(C#N)C1c1c(C)nn(-c2ccccc2)c1Cl (stereo not given) | inconclusive: 25.9 µM [activator, single point]
30 | CCC(=O)N(CCC1(c2ccccc2OC)CCOC(C(C)C)C1)Cc1ccco1 (stereo not given) | inconclusive: 18.4 µM [activator, single point]
31 | Cc1ccc(=O)n(C(C(=O)NCc2ccco2)C(=O)c2ccc(F)cc2)c1 (stereo not given) | inconclusive: 0.0366 µM [activator, partial curve, poor fit]
32 | Brc1ccc(Nc2ncnc3[nH]ncc23)cc1 | inactive
33 | CC1Sc2ccc(C(=O)NCc3ccccc3Cl)cc2NC1=O (stereo not given) | inactive
34 | Cc1[nH]n(-c2nc(-c3ccccc3F)cc(=O)[nH]2)c(=O)c1CCO | inactive
35 | Cc1ccc(Nc2nc(-c3c(C)nc4ncccn34)cs2)cc1 | inconclusive: 0.058 µM [activator, full curve, poor fit]
36 | CC(C)CCOc1ncnc2c1sc1nc3c(cc12)CSC(C)(C)C3 | inconclusive: 16.4 µM [activator, partial curve, poor fit]
37 | CCOc1cc(N2CCOCC2)c(OCC)cc1NC(=O)COc1cccc2cccnc12 | active: 15.8 µM
38 | CCN1CCN(C(=O)c2ccc3c(Cl)c4c(nc3c2)CCCC4)CC1 | inconclusive: 32.6 µM [activator, single point]
39 | O=C(CN1CCC(C(=O)c2ccc(F)cc2)CC1)Nc1ccc(F)cc1 | inactive
40 | C=CCc1ccccc1OCC(O)CN1CCOCC1 (stereo not given) | inactive
41 | CC(=O)c1ccc(Oc2cc(C)nc(-n3nc(C)cc3C)n2)cc1 | active: 4.11 µM
42 | CCN(C[C@H]1N[C@@](C)(C(=O)OC)[C@H]2C(=O)N(Cc3ccccc3)C(=O)[C@@H]12)C(=O)COC | inactive
43 | Cc1nc(N2CCN(c3ccccn3)CC2)c2c(C)c(C(=O)Nc3ccc(F)c(Cl)c3)sc2n1 | inconclusive: 16.4 µM [activator, single point]
44 | CCOC(=O)C(=Cc1ccc2c(c1)OCO2)c1ccccc1 | inconclusive: 32.6 µM [activator, single point]
45 | COC(=O)C1=CC(C(=O)c2cccs2)=NN(c2ccc(OC)cc2)C1C(=O)OC (stereo not given) | inconclusive: 29.1 µM [activator, partial curve, poor fit]
